In publication PMC4336329 (PLoS ONE, 2015):
The whole screen tested about 310,000 compounds, of which about 14,000 (4.5%) showed an effect of 50% or more. The effect is printed as a negative number. The list shows a part of the results.

Target: human ether-à-go-go-related gene (hERG) potassium channel (human, UniProt Q12809)
Experiment: primary screen, population patch clamp on CHO cells stably expressing hERG
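Further: peak tail current of the secondary pulse compared with the same well before compound.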

Chain of human ether-à-go-go-related gene (hERG) potassium channel (Q12809 whole entry, looked up): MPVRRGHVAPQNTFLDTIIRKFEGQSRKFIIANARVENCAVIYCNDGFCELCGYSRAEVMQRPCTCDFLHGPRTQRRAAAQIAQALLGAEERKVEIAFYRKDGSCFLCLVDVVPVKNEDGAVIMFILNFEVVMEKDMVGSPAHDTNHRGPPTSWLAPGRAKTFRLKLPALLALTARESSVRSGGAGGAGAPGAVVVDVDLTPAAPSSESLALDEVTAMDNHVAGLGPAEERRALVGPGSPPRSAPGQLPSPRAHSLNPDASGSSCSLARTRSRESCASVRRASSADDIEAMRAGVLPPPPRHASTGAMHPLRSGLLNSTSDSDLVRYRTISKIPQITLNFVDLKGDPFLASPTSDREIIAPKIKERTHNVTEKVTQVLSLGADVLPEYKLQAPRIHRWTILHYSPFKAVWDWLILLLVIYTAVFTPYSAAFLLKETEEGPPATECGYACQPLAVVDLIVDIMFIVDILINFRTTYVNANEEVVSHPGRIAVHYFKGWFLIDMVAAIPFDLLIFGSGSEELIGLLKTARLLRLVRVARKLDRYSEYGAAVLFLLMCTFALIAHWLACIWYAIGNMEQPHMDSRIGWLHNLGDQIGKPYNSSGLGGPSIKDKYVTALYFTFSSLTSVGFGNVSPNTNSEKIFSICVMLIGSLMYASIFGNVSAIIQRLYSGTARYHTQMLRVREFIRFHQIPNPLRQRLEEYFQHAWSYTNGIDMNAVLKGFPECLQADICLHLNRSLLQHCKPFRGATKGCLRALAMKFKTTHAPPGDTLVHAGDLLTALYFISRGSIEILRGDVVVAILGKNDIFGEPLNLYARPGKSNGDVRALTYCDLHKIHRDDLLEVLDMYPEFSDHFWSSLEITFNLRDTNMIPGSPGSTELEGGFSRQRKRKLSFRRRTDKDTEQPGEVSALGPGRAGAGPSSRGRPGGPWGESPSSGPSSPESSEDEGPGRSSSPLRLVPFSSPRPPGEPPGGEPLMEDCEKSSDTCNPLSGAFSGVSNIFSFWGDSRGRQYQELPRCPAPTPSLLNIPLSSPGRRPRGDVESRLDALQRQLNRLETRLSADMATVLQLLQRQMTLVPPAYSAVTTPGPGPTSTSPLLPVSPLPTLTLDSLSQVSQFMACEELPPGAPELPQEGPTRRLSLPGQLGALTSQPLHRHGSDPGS

Row | SMILES | hERG current change (%, negative = inhibition) at 10uM [%]
1 | O=C(NC1CC1)c1ccc2c(Cl)c3c(nc2c1)CCCC3 | -63.7
2 | O=C1N/C(=N\N=C\c2cccs2)SC1Cc1ccc(Cl)cc1Cl (centres unmarked) | 5.84
3 | Cl.NCCc1nnc(SCc2c(Cl)cccc2Cl)o1 | 5.26
4 | COCCNC(=S)N1CCN(S(=O)(=O)c2ccc(Cl)s2)CC1 | -5.63
5 | O=C(O)C1Cc2ccccc2CN1C(=O)COc1ccc(Br)cc1 (centres unmarked) | 28
6 | COC(=O)c1cc2sc(Cl)cc2n1CC(=O)N1CCCc2ccccc21 | -1.75
7 | Cc1csc(NC(=O)C2CCCN2C(=O)OCC(C)C)n1 (centres unmarked) | 8.73
8 | O=C(Oc1ccccc1C(=O)N1CCOCC1)c1cccc(Br)c1 | -7.73
9 | O=C(NCCCN1CCOCC1)c1ccc(CS(=O)(=O)Cc2ccccc2Cl)o1 | 6.76
10 | Cc1ccc(OCCNC(=O)c2ccc(NC(=O)CC3SC(N4CCCC4)=NC3=O)cc2)cc1 (centres unmarked) | -24.1
11 | CCCn1c(SCC(=O)Nc2ccc(OC)cc2[N+](=O)[O-])n[nH]c1=O | -2.34
12 | CC1CCCN(C(=O)c2sc3cc([N+](=O)[O-])ccc3c2Cl)C1 (centres unmarked) | -36.5
13 | COc1cccc([C@@H]2CC=C(C(=O)O)CN2S(=O)(=O)c2ccc(C)cc2)c1 | 16
14 | COc1ccc(CNC(=O)C2(CC3CC(c4ccccc4)=NO3)CCN(C(=O)OC(C)(C)C)CC2)cc1 (centres unmarked) | -30.5
15 | CN(C)S(=O)(=O)c1ccc(Cl)c(NC(=O)CSc2nc3ccccc3c(=O)n2CCCN2CCOCC2)c1 | -73.9
16 | O=C(Nc1ccc2ccccc2c1)c1cnccn1 | 5.67
17 | COc1ccc(C2C(C#N)=C(N)Oc3c2ccc2cccnc32)cc1OC (centres unmarked) | -11.6
18 | CN(C)CCCN(C(=O)COc1ccccc1)c1nc2cc3c(cc2s1)OCO3.Cl | -65.4
19 | Cc1sc2nc(CSc3cccc(C(F)(F)F)c3)[nH]c(=O)c2c1C | 9.95
20 | Cc1cc(NCCO)nc(-n2nc(C)cc2C)n1 | -0.56
21 | CC(C)OCCCNC(=S)N1CCC(C(=O)c2ccc(Cl)cc2)CC1 | -27.7
22 | O=C(Oc1ccc(F)cc1)c1ccc2c(=O)n3c(nc2c1)CCC3 | -21.6
23 | Cc1c(C(C)(C)O)[nH]c2cc(C(F)(F)F)ccc12 | 34.1

Row | SMILES | hERG current change (%, negative = inhibition) at 10uM [%]
24 | c1ccc(-c2noc(C3CCCCC3)n2)nc1 | 15.9
25 | COCCCn1c(C)nnc1SCc1ccc(C(C)(C)C)cc1 | -1.53
26 | O=C(Cn1c(N2CCN(C/C=C/c3ccccc3)CC2)nc2ccccc21)c1ccccc1 | -51.2
27 | C(=N\Nc1nc(Nc2ccccc2)nc(N2CCCCC2)n1)/c1ccco1 | 0.0871
28 | COC(=O)c1nn(-c2ccccc2)c(=O)cc1Oc1ccccc1 | -1.94
29 | CC(CCc1ccccc1)NS(=O)(=O)c1ccc(Cl)c(C(=O)O)c1 (centres unmarked) | 11.7
30 | CCOC(=O)CNC(=O)CNC(=O)C(Cc1ccc(N(CCCl)CCCl)cc1)NC(C)=O (centres unmarked) | 17.5
31 | COc1ccc(OC)c(NC(=S)N2CCN(C(=O)C3CCCO3)CC2)c1 (centres unmarked) | -1.34
32 | CC(C(=O)NC1CCCCC1)N1CCN(S(=O)(=O)c2cccs2)CC1 (centres unmarked) | -9.2
33 | Cc1ccc(CNC(=O)CCc2c(C)nn(-c3ccc(N4CCOCC4)nn3)c2C)cc1 | 12.1
34 | Br.CCCCCCCCn1ccc(=N)cc1 | -27
35 | COc1ccc(CNC(=O)CN(Cc2ccco2)C(=O)CNS(=O)(=O)c2ccc(C)cc2)cc1 | -73
36 | Cc1ncc([N+](=O)[O-])n1CC(=O)Nc1ccc(F)c(Cl)c1 | 10.5
37 | COc1ccc(C2C(C#N)=C(N)N(c3cccnc3)C3=C2C(=O)CCC3)cc1Cn1cc([N+](=O)[O-])cn1 (centres unmarked) | -25
38 | CCN(C(=O)CN1CCCCC1)C1(C)C(=O)c2ccccc2C1=O | 6.06
39 | COc1ccc(C(=O)NNC(=O)C2CC=CCC2)cc1 (centres unmarked) | 11.5
40 | COc1ccc2cc3cc(C(=O)NCc4ccccn4)oc3nc2c1 | 12.1
41 | O=C1c2c(Br)c(Br)c(Br)c(Br)c2C(=O)N1c1ccccn1 | 24.9
42 | O=C(Nc1ccccc1)c1cccc(S(=O)(=O)NC2CCCC2)c1 | 5.41
43 | COC(=O)N/N=C(C)/C=C/c1ccccc1 | 4.42
44 | Cn1ccnc1SCc1nc2c(cnn2-c2ccccc2)c(=O)[nH]1 | -13.7
45 | Cc1nn(-c2ccc(F)cc2)c2nc(N)c(C#N)c(-c3cccs3)c12 | 7.18
46 | CCCC(=O)c1cc(F)c(N2CCOCC2)cc1C | -10.7

Row | SMILES | hERG current change (%, negative = inhibition) at 10uM [%]
47 | Cc1ccccc1C(=O)Nc1sc(C)c(C)c1C(=O)c1ccccc1 | 22.2
48 | CCc1cc(Cn2nc(-c3ccccc3)cc2C(=O)O)on1 | -1.7
49 | Nc1nc(-c2ccco2)nn1C(=O)c1ccc(Cl)cc1 | 10.1
50 | CC(=O)Nc1ccc(SCCN2CC[C@@H](C)CCC2=O)cc1 | -1.31
51 | Cc1ccc(-n2nnnc2SCC(=O)Nc2ccccc2N2CCCCC2)cc1C | 14.3
52 | S=c1[nH]nc(COc2ccccc2)n1/N=C/c1cccnc1 | 11.9
53 | O=C(NCc1cccs1)c1ccc(CS(=O)Cc2ccccc2Cl)o1 (centres unmarked) | 7.77
54 | CC(C)(O)CNC(=O)Nc1ccc(Cl)c(Cl)c1 | 8.04
55 | COC(=O)C1=C(SC)N(c2ccccc2)C(c2ccccc2)CC1=O (centres unmarked) | -29.3
56 | Cc1cc(C)c(NC(=O)CSc2nc3[nH]ncc3c(=O)[nH]2)c(C)c1 | 20.9
57 | C=C1CCN([C@@H](Cc2ccccc2)C(=O)NC2CCN(Cc3ccccc3)CC2)S(=O)(=O)c2ccccc21 | -21.3
58 | Cc1ccc(S(=O)(=O)Nc2ccccc2CNc2ccccn2)cc1 | 7.48
59 | CC(Sc1nncn1-c1ccccc1)C(=O)Nc1cccc([N+](=O)[O-])c1 (centres unmarked) | -17.2
60 | Cc1ccc(C2C3=C(CC(C)(C)CC3=O)Nc3n[nH]c(C)c32)cc1 (centres unmarked) | -10.4
61 | Cc1[nH]c2ccc(OCc3ccccc3)cc2c1CCN.Cl | 3.53
62 | CC(C)(C)c1ccc(OCCC(=O)NC2=NCCS2)cc1 | 10.9
63 | Cc1cc(C)n(C(=O)CNC(=O)C(c2ccccc2)c2ccccc2)n1 | -3
64 | Cn1c(OCc2ccc3c(c2)OCO3)nc2c1c(=O)n(Cc1ccc(Cl)c(Cl)c1)c(=O)n2C | -5.5
65 | COc1ccc(OC)c(/C=C2\SC(N3CCCCC3)=NC2=O)c1 | -6.02
66 | NC(=O)c1ccc(C(F)(F)F)cn1 | 17.8
67 | CCN1CCN(CCNC(=O)c2ccc(CS(=O)c3ccc(Br)cc3)o2)CC1 (centres unmarked) | -2.5
68 | C/C(=N\NC(N)=O)c1ccc(Cl)cc1 | 6.12
69 | CCc1nnc(N/N=C/c2ccccc2F)n1N.Cl | 28.9

Row | SMILES | hERG current change (%, negative = inhibition) at 10uM [%]
70 | CCCCCCc1cc2cc(S(=O)(=O)c3ccc(C)cc3)c(=O)oc2cc1O | 13.6
71 | CCC12CN3CCN(CC(C3)/C1=N/NC(=O)c1ccncc1)C2 | 21.2
72 | CCN(CC)S(=O)(=O)c1cccc(C(=O)OCC(=O)NCc2ccccc2OC)c1 | -33.1
73 | CC(C)(C)c1ccc(-c2nc(NCc3cccnc3)c3ccccc3n2)cc1 | -0.796
74 | COc1ccc(OC)c(C2=NOC(C(=O)NCc3cccs3)C2)c1 (centres unmarked) | -13.5
75 | Cc1ccc(S(=O)(=O)Nc2cc(-c3ccccc3)nn2C)cc1Cl | 12.2
76 | COc1ccc(Nc2ccc(S(=O)(=O)N3CCCCCC3)cc2[N+](=O)[O-])cc1 | -5.69
77 | N#CNC1=NCN(CCc2ccccc2)CN1 | 14.2
78 | CCCOC(=O)C1[C@H]2C(=O)N(CCCOC)C[C@]23C=C[C@H]1O3 (some centres unmarked) | -3.36
79 | Cc1ccc(N2CC(C(=O)OCC(=O)Nc3ccc(Cl)cc3)CC2=O)cc1 (centres unmarked) | -3.67
80 | CS(=O)(=O)N1CCN(Cc2ccc([N+](=O)[O-])cc2)CC1 | -23.6
81 | CCCCN(C(=O)c1cccc(S(=O)(=O)N2CC(C)OC(C)C2)c1)c1c(N)n(CC(C)C)c(=O)[nH]c1=O (centres unmarked) | 5.66
82 | Cn1c(SCC(=O)NCc2ccco2)nnc1-c1ccc(S(=O)(=O)N2CCOCC2)cc1 | -24.5
83 | COc1cccc(Nc2n[nH]c(=S)s2)c1 | 27.2
84 | COc1ccc(S(=O)(=O)NCC(=O)NCCc2ccc(OC)c(OC)c2)cc1 | 14.9
85 | COc1cccc(CNC(=O)c2ccc(S(=O)(=O)N3CCCC3)cc2)c1 | -4.54
86 | CC1CCN(CC(=O)c2cccs2)CC1 | -2.86
87 | O=C(CSc1nccc(=O)[nH]1)N1N=C2/C(=C/c3ccco3)CCCC2C1c1ccco1 (centres unmarked) | 17.4
88 | O=C(Oc1ccc(C(=S)N2CCOCC2)cc1)c1cccc(Cl)c1 | 20.6
89 | CCN1CCN(C(c2cccs2)C(C)NS(=O)(=O)c2ccc(Br)cc2)CC1 (centres unmarked) | -48.1
